# ± gives the standard deviation of the averaged measurements. The list shows a part of the results.
# System: PfAP2-I AP2 domain 3 (GST-tagged)
# Assay: gcPBM binding intensity (ln(normalized median fluorescence intensity)); higher = stronger DNA binding
# In short: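 The highest Masliner-normalised natural-log median intensity across replicate spots of either probe orientation is reported as binding intensity. GST-tagged P. falciparum DNA-binding domains expressed in E. coli were applied for 1 h to an Agilent 4 × 180k array of primer-extended double-stranded 36-bp intergenic genomic probes plus negative controls, and bound protein was detected with Alexa488 anti-GST antibody and scanned at 488 nm.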
row,Sequence,gcPBM binding intensity (ln)
1,AATCAAAACAACAATAGTACATAAAAAAACAAAACA [XGTACX_site4181],7.91 ± 0.57
2,ATACATAAATTTAGAAGTACATAACAAATTTTTAAA [XGTACX_site7448],7.77 ± 0.4
3,ATAAAAATTTAAAAAGAACACACGAAAGAAGGACTT [CACACA_site3929],8.06 ± 0.81
4,GTGAGCTCAGACTACACACACAAAGAAAAAAATAAA [CACACA_site1553],7.65 ± 0.47
5,ATATTTTTAGGTGATTATTATTCGGAGAAGCGAATT [CACACA_negctrl_site1097],7.41 ± 0.59
6,TATATAAACACGTACACACACATATCTGTATTTATA [CACACA_site5858],8.32 ± 0.2
7,AATACCTACCAAACATGTACATACGCTTCTCAAATA [XGTACX_site5535],8.29 ± 0.53
8,ATACAACAAAAATAAGCACACACAAATATACATACA [CACACA_site9201],8.18 ± 0.4
9,AACAAATACAGACACACACACACACCCAAAAAAAAA [CACACA_site515],8.31 ± 0.22
10,AATAAGAGGATACATTGTACATAAAAAAAAAAAATA [XGTACX_site1815],7.71 ± 0.38
11,AGCAAAACAAAAAAATTAAAATTAACATATAATCAT [GTGCAC_negctrl_site393],7.38 ± 0.62
12,TTTTGAAGCTTTAAAACATATATATATATATATATA [CACACA_negctrl_site184],9.62 ± 0.48
13,TATTGTTCTTATTTAGTGCATATATAATATAATATA [GTGCAC_site9827],10.3 ± 0.26
14,ATGTTCTTATTATTGGTGCAAGAATACACAAGAAAA,10.1 ± 0.31
15,TATGTGAATAAATAAGCACACATAAACACATATATA [CACACA_site9359],8.06 ± 0.42
16,AACACATAATAAAATTGTACCCAACATTTCTTTTGA [XGTACX_site8061],7.63 ± 0.64
17,GTGTATAGAATGGTTTCTTTTAAGGTTTTTATTTTT [CACACA_negctrl_site564],8.12 ± 0.17
18,AGGTTCTTTTTAAATGGTACACATAATTTGAAGATA [XGTACX_site400],7.76 ± 0.45
19,ATACCCACTTAAAATACACACACACCGAAAAAAAAA [CACACA_site8867],8.15 ± 0.6
20,ATATATTAATAATTTTGTACGCATTTCCTTTTTATT [XGTACX_site1638],8.03 ± 0.49
21,GAAAATATTTCCGTATGTACTTATTTTAGTCTACTA [XGTACX_site471],7.83 ± 0.46
22,AAAAAAAAAAAAAAATGTACAAATAAAGAAATATGA [XGTACX_site4371],8.1 ± 0.32

row,Sequence,gcPBM binding intensity (ln)
1,AATATTTTCTTGTACGCATGCACATCCAAATTATAT [TGCATGCA_site873],8.49 ± 0.4
2,TGACCTGTTCAGGTAACACACATATAAACACATACA [CACACA_site4186],7.86 ± 0.38
3,ATACATAAATATATATGTACATATATATATATATAT [XGTACX_site1055],9.3 ± 0.64
4,TGCAGTCTGGAGAAACGTACATAGTATCTGGTAGCT [XGTACX_site4937],7.75 ± 0.74
5,AAAATATATTTAAATTGTACACGTTACCATAACAAT [XGTACX_site2598],7.93 ± 0.45
6,CTTTTTATTTAGAACACACACAAAAAAAAAAAAAAA [CACACA_site1761],8.08 ± 0.59
7,ATGAATACAAAATTATACAAAATTATCAAAAGTATG [CACACA_negctrl_site1453],7.5 ± 0.49
8,TAATAACATACAGACACACACGTAAAAGCACGTGTA [CACACA_site4299],8.91 ± 0.41
9,TACTTTCAAAAGATCACACATATATATATATATATA [CACACA_site5630],9.3 ± 0.33
10,ATGACATGTTCTAAATGTACATTTTTTAACCCTTTT [XGTACX_site1858],7.68 ± 0.63
11,ATAAATAAATAAGTACATATATATATGTATATATAT [TGCATGCA_negctrl_site223],8.4 ± 0.31
12,TATACAAGTATATAGGTGCATATATAAGTATATATT [GTGCAC_site9994],10.5 ± 0.53
13,TATGGTTACATTATATGTACTAAACGAATATTTTTA [XGTACX_site5694],7.43 ± 0.47
14,ATTATAATGTTAATGTGTACATATGATTCCTTAATT [XGTACX_site181],7.97 ± 0.51
15,TATGTTTTTACATATTGTACATATTCTTGTAATACG [XGTACX_site1179],7.65 ± 0.38
16,TATGTGTGCAAAAACTGTACACATTAAAGGTATATA [XGTACX_site7627],9.32 ± 0.28
17,CATACATACAAACACACACACACACCCATATATATA [CACACA_site2918],8.38 ± 0.6
18,TTTTTAACCAAACATCAAAACATATTTTTTTGTTAT [CACACA_negctrl_site385],7.54 ± 0.39
19,GTATACCTTTTGACATGTACGTATGTATATTTGGGT [XGTACX_site720],8.07 ± 0.35
20,ACTACATTATGTCATACATGCATACATACGTGGTTT [TGCATGCA_site732],8.23 ± 0.81
21,AGTAATTTAAGGAATACACACAAGAAAAAAATAAGA [CACACA_site6177],7.92 ± 0.83
22,CATTAAAAGTATAATTGTACTTTTCATTTATATATT [XGTACX_site7536],7.64 ± 0.42

row,Sequence,gcPBM binding intensity (ln)
1,TAATATATATATATATGTACATATATATTATGTATA [XGTACX_site4690],7.76 ± 0.28
2,TTCTCAAAATTAAAATAACAGATTAACGAACTAACG [CACACA_negctrl_site1720],7.74 ± 0.18
3,AGATTATTTAGAATGTGTACATATTACACATACATG [XGTACX_site8634],7.97 ± 0.23
4,AAAAGAAATATTTATACACACACACTAACATATATA [CACACA_site8580],7.78 ± 0.4
5,TTATATATAATTACATGTACGTAGTATTATTTAAAT [XGTACX_site3418],7.92 ± 0.26
6,TTATCATTTTAATGGTGTACTCAATAAAAACTTTAA [XGTACX_site4595],7.86 ± 0.014
7,GTGAAAAAAAACATATGTACTTATACACTAATCTAT [XGTACX_site7600],7.91 ± 0.41
8,TGGTAAAGGAGCAAGATGATAAATCTCCATAACTTT [CACACA_negctrl_site492],7.58 ± 0.67
9,ATGTCTATAATAAGAACACACATATATTTAATTTAA [CACACA_site7394],7.64 ± 0.44
10,GTTGGTACCTTACTTTTACACACTTTTTTTTTTTTT [CACACA_site8441],7.96 ± 0.66
11,TATATATATATGTATACACACATACAAATATGTAAA [CACACA_site9238],9.27 ± 0.11
12,CTATATTCGTTTAATAGTACATATATAACTAGACAA [XGTACX_site5770],7.82 ± 0.35
13,TACACAAGCGGACACACACACATATATATATATATA [CACACA_site4832],9.62 ± 0.47
14,AACATTCTAAAACACACACACACATATATATATATA [CACACA_site1052],9.38 ± 0.29
15,TATATATAAAAAAGCACACATACATACATACATAAT [CACACA_site890],8.12 ± 0.52
16,TTTTCACTTTTAAAAACATGCATACTTTATAAAATA [TGCATGCA_site967],8.71 ± 0.56
17,AAAAAAAAAAAACACACACACACATAAATATATATA [CACACA_site149],7.97 ± 0.63
18,TGTAAATTTGGCATCACACATAAATAAACATATAAA [CACACA_site4497],7.86 ± 0.51
19,TATTAACATATATAAAGTACATTAAACAACATTGTA [XGTACX_site7667],7.55 ± 0.42
20,CATATAAAAGGACACACACACACATATAAATATGTA [CACACA_site6568],8.04 ± 0.23
21,ATTTTTATAGAATGAACACACATATTATAGCATTTA [CACACA_site6842],7.56 ± 0.58
22,TGCTATTTTATTTATTCTTTTATAAAAGTATAATAT [XGTACX_negctrl_site358],7.83 ± 0.72

row,Sequence,gcPBM binding intensity (ln)
1,ATAAAAAAAATTTGCACACCTTCAAAGTAATATATA [CACACA_site1584],9.23 ± 0.099
2,AAAAAAAAAAAAAGTACATGCAATATGGATCTTAAA [TGCATGCA_site367],8.15 ± 0.28
3,TAATTTTTTTTTTTTTTTTTTGTACTTCATTTTTAT [CACACA_negctrl_site1395],7.62 ± 0.15
4,CATAGATACATACACGCACACACATATATATATATA [CACACA_site13],9.23 ± 0.23
5,GTATTACCTTATTATTGTACTTTCATGATATATATG [XGTACX_site5382],7.94 ± 0.69
6,TTAATGAATGGACACACACACATATATATATATATT [CACACA_site5294],7.93 ± 0.4
7,AACATACATGTATATAGTACATATTACATCTGATAC [XGTACX_site3649],7.67 ± 0.59
8,TACACAAGAAAATTCACACACACACCCATATATATA [CACACA_site3879],8.35 ± 0.73
9,AAGAAAATTAAATTAACACACATAAATATATATATA [CACACA_site1664],9.19 ± 0.13
10,GAGTTATTTCTTATTTAAGCATTCTACATATATATA [CACACA_negctrl_site239],7.71 ± 0.59
11,ATTTTACATATTTGCACACATATATTTAAATACATA [CACACA_site4627],9.85 ± 0.28
12,ATATTTATCTTTTTATGTACATATGCCCCTTTTCTG [XGTACX_site673],8.37 ± 0.52
13,TCTTGGTTATTAAAAAAAAAAAAATATATTTTTCCT [TGCATGCA_negctrl_site445],7.34 ± 0.58
14,GTCCTTATGGATGATAAATTATTTTAAATATTCTAT [XGTACX_negctrl_site200],7.31 ± 0.54
15,AATAAAAAATATATGAGTACTAAATTGTTTTCTTAA [XGTACX_site8573],7.66 ± 0.3
16,GGGAAAATAAATAAAGTGCAGATATTAAAAGTTGTA,8.85 ± 0.31
17,TTGCATATTTCTAATTGTACATTATTTTATTTTATA [XGTACX_site8451],7.75 ± 0.54
18,CTCAACGATAGAGAAACATGCAAGTATAAGCAACTA [TGCATGCA_site771],7.69 ± 0.78
19,ATTCACTAAAAAATTGCATGCAATAAATTTTTTTTT [TGCATGCA_site962],7.66 ± 0.48
20,TTTTATTGTTGTTATACACACCATATAAAATATTTC [CACACA_site4983],7.92 ± 0.6
21,AATTGATTTATATATTGTACATATAAATTTATGTAT [XGTACX_site7785],7.58 ± 0.29
22,AATAAATATAGATTCACACACAAACATATATAAATA [CACACA_site7814],7.6 ± 0.61
